The list shows a part of the results.
B1: PhoQ; a variant is named by its letters at X, in order, P23837 (parent)
chain: MKKLLRLFFPLSLRVRFLLATAAVVLVLSLAYGMVALIGYSVSFDKTTFRLLRGESNLFYTLAKWENNKLHVELPENIDKQSPTMTLIYDENGQLLWAQRDVPWLMKMIQPDWLKSNGFHEIEADVNDTSLLLSGDHSIQQQLQEVREDDDDAEMTHSVAVNVYPATSRMPKLTIVVVDTIPVELKSSYMVWSWFIYVLSANLLLVIPLLWVAAWWSLRPIEALAKEVRELEEHNRELLNPATTRELTSLVRNLNRLLKSERERYDKYRTTLTDLTHSLKTPLXXLQXXLRSLRSEKMSVSDAEPVMLEQISRISQQIGYYLHRASMRGGTLLSRELHPVAPLLDNLTSALNKVYQRKGVNISLDISPEISFVGEQNDFVEVMGNVLDNACKYCLEFVEISARQTDEHLYIVVEDDGPGIPLSKREVIFDRGQRVDTLRPGQGVGLAVAREITEQYEGKIVAGESMLGGARMEVIFGRQHSAPKDE

Variants of: B1
Assay: enrichment ratio after two sorts for PhoP signalling (ratio (wild type AVST 3.29)); higher = more functional
Settings: with PhoP (E. coli)
For HHEG, the enrichment ratio was ≤ 0.25.
SYNS was tested, and the enrichment ratio was ≤ 0.25.
YAIH showed an enrichment ratio of 0.272.
In the case of WKDL, the enrichment ratio is reported as ≤ 0.25.
For TYQW, the enrichment ratio was ≤ 0.25.
For VGGY, the enrichment ratio was ≤ 0.25.
For AYAS, the enrichment ratio was ≤ 0.25.
For QRQK, the enrichment ratio was ≤ 0.25.
With MQPG the enrichment ratio was ≤ 0.25.
KHGH was tested, and the enrichment ratio was ≤ 0.25.
With RCGC the enrichment ratio was ≤ 0.25.
With FRPF the enrichment ratio was ≤ 0.25.
With KPPT the enrichment ratio was ≤ 0.25.
With LAHW the enrichment ratio was ≤ 0.25.
PAAG was tested, and the enrichment ratio was ≤ 0.25.
With WIFS the enrichment ratio was ≤ 0.25.
In the case of QHKV, the enrichment ratio is reported as ≤ 0.25.
In the case of QKAI, the enrichment ratio is reported as ≤ 0.25.
With GMIA the enrichment ratio was ≤ 0.25.
With WDRE the enrichment ratio was ≤ 0.25.
IQSW was tested, and the enrichment ratio was ≤ 0.25.
In the case of LSKD, the enrichment ratio is reported as ≤ 0.25.
In the case of HKSV, the enrichment ratio is reported as ≤ 0.25.
With SSFI the enrichment ratio was 4.8.
In the case of IIIR, the enrichment ratio is reported as ≤ 0.25.
SIMD was tested, and the enrichment ratio was 4.7.
With DAVI the enrichment ratio was ≤ 0.25.
With EIFM the enrichment ratio was ≤ 0.25.
With HKMC the enrichment ratio was ≤ 0.25.
DHFH was tested, and the enrichment ratio was ≤ 0.25.
DMFQ was tested, and the enrichment ratio was ≤ 0.25.
AFLD was tested, and the enrichment ratio was ≤ 0.25.
AHCP was tested, and the enrichment ratio was ≤ 0.25.
KMTD was tested, and the enrichment ratio was ≤ 0.25.
FRKS was tested, and the enrichment ratio was ≤ 0.25.
With GYCY the enrichment ratio was ≤ 0.25.
With SRLK the enrichment ratio was ≤ 0.25.
With KLWS the enrichment ratio was ≤ 0.25.
For LPWR, the enrichment ratio was 0.317.
For VEWF, the enrichment ratio was ≤ 0.25.
CSLA gave an enrichment ratio of 2.15.
FCVN was tested, and the enrichment ratio was ≤ 0.25.
In the case of RGFD, the enrichment ratio is reported as ≤ 0.25.
FPEC was tested, and the enrichment ratio was ≤ 0.25.
ASDS was tested, and the enrichment ratio was ≤ 0.25.
IHPV was tested, and the enrichment ratio was ≤ 0.25.
In the case of VGTP, the enrichment ratio is reported as ≤ 0.25.
WSSA was tested, and the enrichment ratio was ≤ 0.25.
WFSE was tested, and the enrichment ratio was ≤ 0.25.
For HVFK, the enrichment ratio was ≤ 0.25.
With WYQL the enrichment ratio was ≤ 0.25.
For WQNP, the enrichment ratio was ≤ 0.25.
GGVT was tested, and the enrichment ratio was ≤ 0.25.
With KLVN the enrichment ratio was ≤ 0.25.
Work on STQH yielded an enrichment ratio of 4.53.
In the case of QHDA, the enrichment ratio is reported as 10.1.
PCHH was tested, and the enrichment ratio was ≤ 0.25.
VLLV was tested, and the enrichment ratio was 0.318.
In the case of LWVR, the enrichment ratio is reported as ≤ 0.25.
For TGSP, the enrichment ratio was ≤ 0.25.
With MYPC the enrichment ratio was ≤ 0.25.
In the case of QVCM, the enrichment ratio is reported as ≤ 0.25.
In the case of PSYD, the enrichment ratio is reported as ≤ 0.25.
MAPH was tested, and the enrichment ratio was ≤ 0.25.
With FTPP the enrichment ratio was ≤ 0.25.
NFTT was tested, and the enrichment ratio was ≤ 0.25.
With LVEK the enrichment ratio was ≤ 0.25.
Work on TVFN yielded an enrichment ratio of 0.373.
STGL showed an enrichment ratio of 9.48.
DKQW was tested, and the enrichment ratio was ≤ 0.25.
With TGFK the enrichment ratio was ≤ 0.25.
SFNM was tested, and the enrichment ratio was ≤ 0.25.
With RHVM the enrichment ratio was ≤ 0.25.
With HWFD the enrichment ratio was ≤ 0.25.
In the case of IFGS, the enrichment ratio is reported as ≤ 0.25.
PSKC was tested, and the enrichment ratio was ≤ 0.25.
In the case of HTFI, the enrichment ratio is reported as ≤ 0.25.
In the case of LNST, the enrichment ratio is reported as ≤ 0.25.
KLYT was tested, and the enrichment ratio was ≤ 0.25.
PGYL was tested, and the enrichment ratio was ≤ 0.25.
With YENL the enrichment ratio was ≤ 0.25.
IDAQ was tested, and the enrichment ratio was ≤ 0.25.
In the case of RAEV, the enrichment ratio is reported as ≤ 0.25.
In the case of PCCP, the enrichment ratio is reported as ≤ 0.25.
With WFVD the enrichment ratio was ≤ 0.25.
In the case of PHTH, the enrichment ratio is reported as ≤ 0.25.
With DKED the enrichment ratio was ≤ 0.25.
RCWH was tested, and the enrichment ratio was ≤ 0.25.
QWIP was tested, and the enrichment ratio was ≤ 0.25.
For ADLH, the enrichment ratio was 5.09.
With GGME the enrichment ratio was ≤ 0.25.
Work on AIAF yielded an enrichment ratio of 12.4.
NLVA was tested, and the enrichment ratio was ≤ 0.25.
For KSPE, the enrichment ratio was ≤ 0.25.
VMMK was tested, and the enrichment ratio was ≤ 0.25.
For NTDK, the enrichment ratio was ≤ 0.25.
KFCG was tested, and the enrichment ratio was ≤ 0.25.
With YKRD the enrichment ratio was ≤ 0.25.
With RGKE the enrichment ratio was ≤ 0.25.
For ISND, the enrichment ratio was ≤ 0.25.
In the case of QVSN, the enrichment ratio is reported as 4.87.
With WWKA the enrichment ratio was ≤ 0.25.
With PEYH the enrichment ratio was ≤ 0.25.
YLMS was tested, and the enrichment ratio was ≤ 0.25.
For KIFY, the enrichment ratio was ≤ 0.25.
With VQDD the enrichment ratio was ≤ 0.25.
In the case of SDIE, the enrichment ratio is reported as ≤ 0.25.
For TFIV, the enrichment ratio was ≤ 0.25.
For ELRF, the enrichment ratio was ≤ 0.25.
With HHEL the enrichment ratio was ≤ 0.25.
Variant LIDL has an enrichment ratio of 1.03.
For LKIG, the enrichment ratio was ≤ 0.25.
For MDPS, the enrichment ratio was ≤ 0.25.
In the case of PDIT, the enrichment ratio is reported as ≤ 0.25.
In the case of NYFE, the enrichment ratio is reported as ≤ 0.25.
For SDTI, the enrichment ratio was 0.595.
WCYC was tested, and the enrichment ratio was ≤ 0.25.
SWPR was tested, and the enrichment ratio was ≤ 0.25.
For PYMR, the enrichment ratio was ≤ 0.25.
With QNRT the enrichment ratio was ≤ 0.25.
For KMNW, the enrichment ratio was ≤ 0.25.
In the case of LGNY, the enrichment ratio is reported as ≤ 0.25.
For ASNN, the enrichment ratio was ≤ 0.25.
For LQGC, the enrichment ratio was ≤ 0.25.
For IRFS, the enrichment ratio was ≤ 0.25.
With KVVP the enrichment ratio was ≤ 0.25.
With FSHH the enrichment ratio was ≤ 0.25.
With SMSD the enrichment ratio was 1.03.
With VDYP the enrichment ratio was ≤ 0.25.
RSAP was tested, and the enrichment ratio was ≤ 0.25.
For ETVA, the enrichment ratio was ≤ 0.25.
With NRTW the enrichment ratio was ≤ 0.25.
For VMEY, the enrichment ratio was ≤ 0.25.
For RMAF, the enrichment ratio was ≤ 0.25.
With PFYW the enrichment ratio was ≤ 0.25.
In the case of GNHW, the enrichment ratio is reported as ≤ 0.25.
In the case of SQVE, the enrichment ratio is reported as 3.4.
In the case of QRMM, the enrichment ratio is reported as ≤ 0.25.
For LSTS, the enrichment ratio was ≤ 0.25.
With NFLR the enrichment ratio was ≤ 0.25.
In the case of FSSC, the enrichment ratio is reported as ≤ 0.25.
YYNL was tested, and the enrichment ratio was ≤ 0.25.
For FVGR, the enrichment ratio was ≤ 0.25.
GNAF showed an enrichment ratio of 0.635.
For KIAH, the enrichment ratio was ≤ 0.25.
With KCMM the enrichment ratio was ≤ 0.25.
For YPQK, the enrichment ratio was ≤ 0.25.
KMSF showed an enrichment ratio of 0.416.
With FFTV the enrichment ratio was ≤ 0.25.
With HEQT the enrichment ratio was ≤ 0.25.
With FLCN the enrichment ratio was ≤ 0.25.
With VWVL the enrichment ratio was ≤ 0.25.
In the case of TRYY, the enrichment ratio is reported as ≤ 0.25.

From a collection of fitness landscapes (doi:10.1126/science.1257360)
